Hit rate of the full screen: of about 320,000 compounds, about 200 (0.062%) were called active. This list was built around the results that the source calls inconclusive (neither active nor inactive); the mix of calls is not that of the screen. Calls come from the whole dose curve; as a rule, active = well fitted activation curve with a large enough effect; inconclusive = small, poorly fitted or top-dose-only effect; inactive = no such curve, though single readings can be large or run the other way. Potencies of inconclusive entries are left out as doubtful fits.
Experiment: qHTS assay for re-activators of p53 using a Luc reporter; note: nearly all actives have a fitted effect of over 45% in size
Details: H1299 p53-A138V BP100-luciferase reporter, luminescence, 24 h; series mostly up to 92.2 µM
In short: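 H1299 (p53-null), stable ts p53-A138V + BP100-Luc; 1000 cells/well, Opti-MEM/10% FBS; cpd 4 pt, 1:5; 24 h, 37 deg C, 5% CO2; detection reagent 10 min RT; luminescence.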
Potency is the fitted concentration of half-maximal effect; tags give direction and shape of the fitted curve.

Row | Structure (SMILES) | Potency
1 | N#Cc1ccccc1OCC(=O)NCc1ccccc1CN1CCCC1 | inconclusive [activator, single point]
2 | C=CC[C@H](CC(=O)N(CCO)Cc1ccccc1)C(=O)N[C@H](C)COC(=O)[C@@H](CC=C)Cc1ccc(F)cc1 | inactive
3 | O=C(NC1CCCC1)c1cc2c(=O)n3ccccc3nc2s1 | inconclusive [activator, full curve, poor fit]
4 | Cc1ccc(C(=O)Oc2oc(-c3ccccc3)nc2C=Nc2ccc(N(C)C)cc2)cc1 | inconclusive [activator, partial curve, poor fit]
5 | CCOC(=O)c1ccc(OS(=O)(=O)c2ccccc2)c(OC)c1 | inconclusive [activator, full curve, poor fit]
6 | CCC(C)C(=O)Nc1nnc(-c2cccs2)s1 (stereo not given) | inconclusive [activator, partial curve, poor fit]
7 | CCOc1ccc(S(=O)(=O)N2CCN(C(=O)COc3ccc(Br)cc3)CC2)cc1 | inactive
8 | Cc1cccc(NC(=S)NN(Cc2ccccc2)c2ccccc2)c1C | inactive
9 | Cc1ccsc1/C=N/NC(=O)c1ccc(-n2cccc2)cc1 | inactive
10 | FC(F)(F)c1nnc(-c2ccccc2)nc1N1CCOCC1 | inconclusive [activator, single point]
11 | C/C(N)=C(/C#N)C(=O)CSc1nnc(Nc2cccc(C)c2)s1 | inconclusive [activator, partial curve, poor fit]
12 | O=C(CCc1ccccc1)c1ccc2c(c1)OCCCO2 | inconclusive [activator, partial curve]
13 | CCN1CCN(c2cc(C)c3cc(NC(=O)c4cccc(OC)c4)ccc3n2)CC1 | inactive
14 | CC(=O)NCCOC(=O)Nc1sc(=S)n(C)c1C | inconclusive [activator, full curve, poor fit]
15 | CCc1nnc(NC(=O)C23CC4CC(CC(C4)C2)C3)s1 | inconclusive [activator, full curve, poor fit]
16 | Clc1nc2ccccc2cc1/C=N/Nc1nc2ccccc2[nH]1 | inconclusive [activator, full curve, poor fit]
17 | COc1cc(/C=C/C(C)=O)cc(OC)c1OC | inactive
18 | CC(=O)CCC(=O)c1ccc2ccccc2c1 | inconclusive [activator, partial curve, poor fit]
19 | CCOc1ccc(C(=O)COC(=O)c2cc([N+](=O)[O-])ccc2N2CCOCC2)cc1 | inactive
20 | Cc1nc2c(C(=O)N3CCCCC3)cnn2c(C)c1Cc1ccccc1F | inconclusive [activator, partial curve, poor fit]
21 | COCCCn1c(SCC(=O)N2CCc3ccccc32)nnc1-c1ccco1 | inconclusive [activator, single point]
22 | CC(=O)c1cccc(OCc2cc(C(=O)N(C)Cc3ccc(C)o3)no2)c1 | inconclusive [activator, partial curve, poor fit]
23 | S=C(NCc1ccco1)Nc1ccc(Cl)c(Cl)c1 | inconclusive [activator, full curve, poor fit]

Row | Structure (SMILES) | Potency
24 | O=C1CC(c2cccs2)Sc2nc3ccccc3n21 (stereo not given) | inconclusive [activator, partial curve, poor fit]
25 | Cc1cc(/C=C2\SC(N)=NC2=O)c(C)n1-c1ccccc1 | inconclusive [activator, full curve]
26 | Cc1ccccc1Nc1ncnc2c1cnn2-c1ccccc1 | inconclusive [activator, partial curve, poor fit]
27 | O=C(CSc1nc2ccccc2o1)Nc1ccc(N2CCOCC2)cc1 | inactive
28 | O=C(CCSCc1ccccc1Cl)N1CCN(c2ccccn2)CC1 | inconclusive [activator, partial curve, poor fit]
29 | CN1CCN(c2ccc(NC(=O)c3sc4ccccc4c3Cl)cc2)CC1 | inconclusive [activator, partial curve, poor fit]
30 | O=C(c1ccc2ccccc2n1)N1CCN(c2ccccc2O)CC1 | inconclusive [activator, partial curve, poor fit]
31 | O=C(Nc1nc(-c2cccs2)cs1)c1ccc(S(=O)(=O)N2CCCC2)cc1 | inactive
32 | COc1ccccc1-c1c(-c2ccc(O)cc2O)n[nH]c1C(F)(F)F | inactive
33 | Fc1ccccc1-c1cc2cc3c(cc2cn1)OCO3 | inconclusive [activator, full curve, poor fit]
34 | C=CCn1cnc2c(c1=O)c1nc3ccccc3nc1n2-c1ccccc1 | inactive
35 | CC(C)(C)c1ccc(NC(=O)COC(=O)C2=COCCO2)cc1 | inconclusive [activator, partial curve, poor fit]
36 | CC1(C)Cc2c(sc(NC(=O)c3ccc4ncsc4c3)c2C(N)=O)C(C)(C)N1 | inconclusive [activator, partial curve, poor fit]
37 | CC1Cc2ccccc2N1S(=O)(=O)c1cnc(Cl)c(Br)c1 (stereo not given) | inconclusive [activator, partial curve, poor fit]
38 | CC(/C=C/c1ccc(OCc2ccccc2)cc1)=N\O | inconclusive [activator, full curve, poor fit]
39 | CCN1CCN(S(=O)(=O)c2ccc(Oc3ccccc3OC)cc2)CC1 | inactive
40 | O=C(N/N=C/c1cc2c(cc1Cl)OCO2)c1ccc2c(c1)OCCO2 | inactive
41 | COCc1cc(=O)[nH]c(Nc2nc3ccc(C)cc3o2)n1 | inconclusive [activator, partial curve, poor fit]
42 | Cc1cc(C)nc(N/N=C/c2ccccc2Cl)n1 | inactive
43 | Cc1cc(C)c(-c2nc3ccccc3s2)[nH]1 | inconclusive [activator, partial curve, poor fit]
44 | CCn1c(SCc2nc3ccccc3nc2C)nnc1-c1cccs1 | inactive
45 | O=C(NCC1COc2ccccc2O1)c1ccc(Cl)cc1 (stereo not given) | inconclusive [activator, partial curve, poor fit]

Source: PubChem BioAssay AID504706 (National Center for Advancing Translational Sciences (NCATS), 2011)
